Source: PubChem BioAssay AID1508624 (National Center for Advancing Translational Sciences (NCATS), 2021)
In all, about 48,000 compounds went through this assay and about 120 (0.25%) were called active. Inconclusive results (about 4%) are left out. The call rests on the fitted dose curve; in most records, active means well fitted activation curve with a large enough effect; inconclusive means small, poorly fitted or top-dose-only effect, or another doubt; inactive means no such curve, though single readings can be large or run the other way. Some of the results follow.

Assay: Primary qHTS for Identification of Small Molecule Activators of Huntingtin-Antisense Promoter Activity; further: nearly all actives have a fitted effect of over 55% in size
Details: HEK293 HTT-AS promoter firefly luciferase reporter, 24 h; series mostly up to 57.5 µM; activity change, positive = activation: at the top concentration
Excerpt: Assay Provider: Russell L. Margolis M.D.
Department Neurology, Johns Hopkins University School of Medicine, Baltimore, MD
Huntington's Disease (HD) is a neurodegenerative disorder caused by a CAG repeat expansion in exon 1 of huntingtin (HTT). While there are currently no disease-modifying treatments for HD, recent efforts have focused on development of nucleotide-based therapeutics to lower HTT expression. As an alternative to siRNA or oligonucleotide methods, we hypothesized that suppression of HTT expression might be accomplished by small molecules that either (1) directly decrease HTT expression by suppressing HTT promoter activity or (2) indirectly decrease HTT expression by increasing the promoter activity of HTT-AS, the gene antisense to HTT that appears to inhibit expression of HTT.
We developed and employed a high throughput screen for modifiers of HTT and HTT-AS promoter activity using luminescent reporter HEK293 cells; of the 52,041 compounds tested, we identified 898 replicable hits. We used a rigorous stepwise approach to assess compound toxicity and the capacity of the compounds to specifically lower huntingtin protein in 5 different cell lines, including HEK293 cells, HD lymphoblastoid cells, mouse primary neurons, HD iPSCs differentiated into cortical-like neurons, and HD hESCs. We found no compounds which were able to lower huntingtin without lowering cell viability in all assays, though the potential efficacy of a few compounds at non-toxic doses could not be excluded.
SEQUENCE No. (1, 2, 3, etc.); […] (e.g., Cells, Incubation, Reagent, etc.); VALUE and DESCRIPTION.
1; Reagent; 4 uL; 2,500 Hek293 luciferase reporter cells per wells
3; Compound; 23 nL; Control inhibitor / compound library
5; Reagent; 2.5 uL; Firefly Luc reagent; Dual-Glo Luciferase Reporter Assay System (Promega)
6; Time; 10 min; room temperature incubation
7; Detection; Luminescence; FLuc
NOTES (numbers refer to sequence above)
1; High-throughput screening, measuring luminescence from a Hek293 luciferase reporter, was performed in 1,536 well white-walled tissue-culture treated plates. 2,500 cells were plated in 4 µL of Opti-MEM per well using a Multidrop Combi Reagent Dispenser (ThermoFisher).
2; Assay plates were cultured for 24 hours.
3; Control inhibitor (PTC124; final concentration of 50 uM) and compound library (at final concentrations of 460 nM - 57.5 uM) were added to the assay plate using the Kalypsis Pintool Robotic System equipped with 1536 pinheads.
4; Cells were then incubated for 24 hours at 37 degrees C prior to luminescence measurements.
5; In all cases, luminescence was measured using the Dual-Glo Luciferase Reporter Assay System (Promega) following the manufacturer's instructions.
6; Room temperature incubation.
7; Luminescence signal was obtained using the PerkinElmer ViewLux plate reader. Results were normalized to vehicle control (0% activity) and zero RLU (-100% activity).

Activity change, positive = activation, inactive:
CCS(=O)(=O)NCC(c1ccco1)N1CCN(c2ccccc2)CC1 (configuration not stated) -6.23%
CSc1nc(Nc2ccc(C)cc2)c(C#N)c(-c2ccccc2)n1 -9.29%
Cc1ccc2c(c1)C(c1ccccc1)N(C(=O)c1ccc(S(=O)(=O)N3CCCCC3)cc1)CC(=O)N2 (configuration not stated) 2.14% [at 11.5 µM, percent change from vehicle, -100% = no light]
Cc1ccccc1NC(=O)C(=O)NCC1(c2ccccc2)CCCC1 -15.9%
COc1ccc(Cl)cc1NC(=O)c1cnc(SC)nc1-c1ccccc1 -24.4%
CCN1CCN(c2ncc3c(n2)CCN(Cc2sccc2C)C3)CC1 -10.7%
CCOc1ccc(Nc2nc(C)c(NC(=O)c3ccc(C)cc3)c(Nc3ccc(OCC)cc3)n2)cc1 -44.9%
O=C(CSc1nnc2scc(-c3ccc(Cl)cc3)n12)Nc1cccc(C(F)(F)F)c1 -19%
COc1cc(NC(=O)CC(C)S(=O)(=O)c2ccc3c(c2)CCN3C(C)=O)cc(OC)c1OC (configuration not stated) -7.66%
Cc1ccc(NC(=O)CN(C)S(=O)(=O)c2cccc3cccnc23)cc1F -16.1%
CCOC(=O)Cc1ccc(NC(=O)N2CCc3c(sc4c3CCCC4)C2c2ccc(F)cc2)cc1 (configuration not stated) 0%
COc1ccc(Cl)cc1Nc1nc2ccc(C(=O)c3ccccc3)cc2n2cnnc12 25.6%
CCn1c(=O)c2cc(C(=O)N3CCN(c4cccc(OC)c4)CC3)sc2c2ccccc21 -36.3%
CN(CC(=O)Nc1ccc(Cl)cc1F)S(=O)(=O)c1ccc2c(c1)n(C)c(=O)c(=O)n2C -19.4%
CCc1ccc(C(c2ccccc2)c2c[nH]c3ccc(C)cc23)s1 (configuration not stated) 12.5%
CCc1cccc(-n2nnc(-c3nsc(NC(=O)c4ccc(C)cc4)n3)c2C)c1 -18.2%
CC(C(=O)O)c1ccc(CC2CCCC2=O)cc1 (configuration not stated) -5.81%
Cc1sc2ncn(CC(=O)N3CCN(c4ccccc4)CC3)c(=O)c2c1S(=O)(=O)N1CCN(c2ncccn2)CC1 -20.7%
COc1ccc(Cn2ccnc2SCC(=O)NC2CCCC2)cc1 -17.4%
CC(CCc1ccccc1)NC(=O)Cn1c(=O)nc(-c2ccccc2F)c2cc(Cl)ccc21 (configuration not stated) -8.66%
Cc1oc(-c2ccccc2F)nc1CSCC(=O)NCc1ccccc1 -14.2%
Cc1cccc(C)c1NC(=O)CSc1ncc2c(n1)-c1ccc(Cl)cc1N(Cc1ccccc1)S2(=O)=O -24%
COc1ccc2c(c1)CC(C(=O)Nc1cccc(C)c1C)CO2 (configuration not stated) -16.6%
CC(C)c1ccc(NC(=O)C2CCCN(S(=O)(=O)c3cccc4nsnc34)C2)cc1 (configuration not stated) -25.3%
CC(C)C[C@@H]1[C@H](c2ccccc2)OC(=O)N1CCCN1CCCCCC1 -3.77%
COC(=O)c1ccc(NS(=O)(=O)c2c(C)nc3sccn3c2=O)cc1 -21.3%
C/C(=C(\CCO)SS/C(CCO)=C(\C)N(C=O)Cc1cnc(C)nc1N)N(C=O)Cc1cnc(C)nc1N -4.72%
COc1cccc(-n2ccnc2SCC(=O)Nc2ccc(Cl)c(Cl)c2)c1 -26%
CSc1ccc(CCNC(=O)c2ccc3c(c2)nc2n3CCCCC2)cc1 -51.8%
CCOC(=O)Cn1c(=O)n(C2CCCCC2)c2nc(-c3ccc(OCC)cc3)nc(C(N)=O)c21 -21.6%
COc1ccc(C2CC(=O)c3cnc4c(-c5ccccc5)c(C)nn4c3C2)cc1OC (configuration not stated) -27.1%
O=C(CSc1nccn1-c1ccc(Cl)cc1)Nc1cccc2ccccc12 -12.1%
Cc1ccc(CSc2ncc(Cl)c(C(=O)Nc3nc4ccc(C)cc4s3)n2)cc1 10.6%
Oc1c(C(c2ccccc2)N2CCN(c3cccc(Cl)c3)CC2)sc2nc(-c3ccco3)nn12 (configuration not stated) -10.3%
O=c1c(=O)n(-c2ccccc2)ccn1Cc1cccc(C(F)(F)F)c1 -12.1%
Cc1ccc(NC(=O)c2cc3nc(-c4ccc5c(c4)OCO5)cc(C(F)(F)F)n3n2)cc1Cl 4.53%
O=C(NCc1ccc(F)cc1)c1ccc(CS(=O)Cc2ccc(Cl)cc2)o1 (configuration not stated) -33.5%
COc1ccccc1CNS(=O)(=O)c1cc(Br)cc2c1N(C(C)=O)C(C)C2 (configuration not stated) -18.9%
O=C1COc2ccc(-c3cc(-c4ccc(F)cc4)c4c(n3)-c3cc(Cl)ccc3OC4)cc2N1 1.29%
Cc1c(C(=O)Nc2ccccc2Cl)sc2ncnc(N(C)C3CCCCC3)c12 -13%
CCc1ccc(CNC(=O)C2CCCN(c3nnc(C)c4c(C)n(-c5ccc(OC)cc5)nc34)C2)cc1 (configuration not stated) -18.3%
COc1cc(Cl)c(NC(=O)c2cc(CN3CCCC3)on2)c(OC)c1 -8.35%
Cc1ccc(N2CC(c3nnc(Cc4ccc(F)cc4)o3)CC2=O)cc1 (configuration not stated) -12%
CCOc1ccc(C2C(C(=O)OC)=C(C)NC3=C2C(=O)c2ccccc23)cc1OC (configuration not stated) -33.9%
CCc1ccc(NC(=O)C2CCCN(c3nn4cc(-c5ccc(OC)cc5)nc4s3)C2)cc1 (configuration not stated) -24.1%
O=C(Nc1ccc(F)cc1Cl)C1CCN(c2ncnc3c2nc2n3CCCCC2)CC1 -1.96%
CN(C1CCCCC1)S(=O)(=O)c1ccc2c(c1)c(=O)c(C(=O)NCc1ccccc1Cl)cn2C 8.18% [at 11.5 µM, percent change from vehicle, -100% = no light]
